From the supplement of paper PMC4604168 (melanoma cell lines)
Some of the results follow. Repeats are few or missing, and single values can be far off.

Experiments:
Assay in all cases: cell count relative to DMSO control; melanoma cells; higher = more viable cells
Settings in all cases: library dose: standard library concentration; 72 h
A101D = tested on: A101D
A2058 = tested on: A2058
A375 = tested on: A375
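Also: cells treated in 1,536-well plates, then fixed and DAPI-stained, with nuclei counted from automated high-throughput microscope images.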

COc1cc2c(Oc3ccc4[nH]c(C)cc4c3F)ncnc2cc1OCCCN1CCCC1 [cediranib] + c1cc(-c2cnn3cc(-c4ccc(OCCN5CCCCC5)cc4)cnc23)ccn1 [Dorsomorphin] (first compound 2 µM, partner dose 2 µM)
cell count (A101D): 81% | cell count (A2058): 67.5% | cell count (A375): 99.2%

Cc1ccc(NC(=O)c2cccc(N(C)C)c2)cc1NC(=O)c1ccc(O)cc1 + OCCn1cc(-c2cnc3nnn(Cc4ccc5ncccc5c4)c3n2)cn1 [PF04217903] (first compound 10 µM, partner dose 5 µM)
cell count (A101D): 114% | cell count (A2058): 91.3% | cell count (A375): 112%

CN(NC(=O)CC(=O)NN(C)C(=S)c1ccccc1)C(=S)c1ccccc1 + COc1cc2c(Oc3ccc4[nH]c(C)cc4c3F)ncnc2cc1OCCCN1CCCC1 [cediranib] (first compound 0.03 µM, partner dose 2 µM)
cell count (A101D): 64.6% | cell count (A2058): 11.9% | cell count (A375): 131%

NC(=O)c1ccc(N(C(N)=O)c2c(F)cccc2F)nc1-c1ccc(F)cc1F + Cn1c(Nc2ccc(C(F)(F)F)cc2)nc2cc(Oc3ccnc(-c4ncc(C(F)(F)F)[nH]4)c3)ccc21 [CHIR265] (first compound 2 µM, partner dose 0.4 µM)
cell count (A101D): 61% | cell count (A2058): 73.4% | cell count (A375): 95.4%

CCCCCCCCc1ccc(CCC(N)(CO)CO)cc1 [fingolimod] + CNC(=O)c1cc(Oc2ccc(NC(=O)Nc3ccc(Cl)c(C(F)(F)F)c3)cc2)ccn1 [sorafenib] (first compound 10 µM, partner dose 2 µM)
cell count (A101D): 3.23% | cell count (A2058): 5.14% | cell count (A375): 19.4%
